Measurements from PMC11273436 (Antibiotics, 2024).

How the values were obtained:
H1N1 virus [1] = assay type: in vivo, C57BL/6J mice
H1N1 virus [2] = test: microbe, parasite or virus in culture; conditions: Influenza A virus, H1N1, A549, read-out: IC50 against H1N1 infection
H1N1 virus [3] = conditions: read-out: IC50 against H1N1 infection; A549 cells, mean ± SEM, 3 independent experiments
[4] = C57BL/6J mice, i.p. daily for 5 days, Pc-5 10 mg/kg, RV 100 mg/kg, n = 7

Compound | effect on body weight of H1N1-infected mice (H1N1 virus [1]; mouse, in vivo) | lung inflammatory score (H&E) compared with the H1N1 group (H1N1 virus [1]; mouse, in vivo) | IC50 (H1N1 virus [2]) | infectious viral titers in pulmonary tissue (H1N1 virus [1]; C57BL/6J mice, day 5 postinfection, i.p. daily, Pc-5 10 mg/kg, RV 100 mg/kg, n = 7) | effect on body weight of H1N1-infected mice (H1N1 virus [1]; [4]) | lung inflammatory score (H&E) compared with the H1N1 group (H1N1 virus [1]; [4]) | IC50 (H1N1 virus [3])
NC(=O)c1ncn([C@@H]2O[C@H](CO)[C@@H](O)[C@H]2O)n1 [RV, ribavirin, reference compound] | ameliorated the H1N1-induced impact on body growth | lower | 101 ± 29.7 µM | – | – | – | –
VCVKKVRKLYKKIYKCR-NH2 (disulfide) [Pc-5] | – | – | – | significant reduction in the viral burden | ameliorated the H1N1-induced impact on body growth | lower | 2.47 ± 1.95 µM

Like-named read-outs stand apart in the source and are kept apart here.
